According to PubChem BioAssay AID504339 (National Center for Advancing Translational Sciences (NCATS), 2011):
Values joined by “and” are separate entries in the source; they are usually repeats but may differ in a detail not shown here. Equal values may be shown once. In all, about 390,000 compounds went through this assay and about 17,000 (4.4%) were called active. The shares of active, inactive and inconclusive entries below differ from those in the screen. Calls follow the shape of the dose curve; as a rule, active = well fitted inhibition curve with a large enough effect; inconclusive = small, poorly fitted or top-dose-only effect; inactive = no such curve, though single readings can be large or run the other way. Potencies beside an inconclusive call are fits to weak or partial responses and may not hold up.

Each compound was assayed against Lysine-specific demethylase 4A (Homo sapiens) (UniProt O75164) (assay: qHTS Assay for Inhibitors of JMJD2A-Tudor Domain). Conditions: AlphaScreen JMJD2A-Tudor / H3K4me3 peptide binding; series mostly up to 114 µM.
Also: nearly all actives have a fitted effect of over 50% in size.
Potency is read from the fitted curve at half-maximal effect; tags tell the direction and shape of the fitted curve.

UniProt O75164, sequence (O75164 whole entry, looked up, the tested form may be a part): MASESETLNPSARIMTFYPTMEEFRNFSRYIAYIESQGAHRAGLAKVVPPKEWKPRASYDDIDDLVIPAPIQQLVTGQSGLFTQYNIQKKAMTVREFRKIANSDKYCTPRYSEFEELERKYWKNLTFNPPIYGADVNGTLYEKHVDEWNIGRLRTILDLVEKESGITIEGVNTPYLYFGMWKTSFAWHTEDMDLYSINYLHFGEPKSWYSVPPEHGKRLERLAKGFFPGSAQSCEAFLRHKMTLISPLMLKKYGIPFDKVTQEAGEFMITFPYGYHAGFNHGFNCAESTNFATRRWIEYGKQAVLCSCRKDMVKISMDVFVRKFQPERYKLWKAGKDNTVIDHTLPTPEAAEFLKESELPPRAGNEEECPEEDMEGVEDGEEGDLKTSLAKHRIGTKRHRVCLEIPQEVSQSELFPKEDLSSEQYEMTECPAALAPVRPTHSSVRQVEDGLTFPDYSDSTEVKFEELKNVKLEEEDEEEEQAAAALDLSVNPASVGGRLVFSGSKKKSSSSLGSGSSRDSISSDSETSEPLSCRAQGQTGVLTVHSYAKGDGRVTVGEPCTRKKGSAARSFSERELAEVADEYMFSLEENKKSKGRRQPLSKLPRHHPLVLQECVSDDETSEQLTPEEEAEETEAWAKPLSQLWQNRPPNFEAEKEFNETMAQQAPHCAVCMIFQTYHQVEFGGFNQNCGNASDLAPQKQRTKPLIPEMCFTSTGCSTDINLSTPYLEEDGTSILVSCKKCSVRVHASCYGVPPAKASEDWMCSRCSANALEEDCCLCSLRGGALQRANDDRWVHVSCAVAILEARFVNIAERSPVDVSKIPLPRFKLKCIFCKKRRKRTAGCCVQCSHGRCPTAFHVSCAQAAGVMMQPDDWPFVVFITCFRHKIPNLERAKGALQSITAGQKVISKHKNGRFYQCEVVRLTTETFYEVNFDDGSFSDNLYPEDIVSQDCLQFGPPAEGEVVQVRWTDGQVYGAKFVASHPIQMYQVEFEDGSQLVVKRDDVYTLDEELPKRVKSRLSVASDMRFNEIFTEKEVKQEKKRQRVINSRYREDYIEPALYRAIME

Potency, active:
O=C(O)c1ccccc1/C=N/NC(=O)c1cc(-c2ccco2)nc2ccccc12 50.1 µM
COc1ccc(OCc2n[nH]c(=S)n2N)cc1 3.98 µM
CN(C)c1ccc(C(CNS(=O)(=O)c2ccc(Br)cc2)N2CCCC2)cc1 (stereo not drawn) 44.7 µM
COc1ccc(S(=O)(=O)N2CCC(N3CCN(Cc4ccccc4)CC3)CC2)cc1 5.62 µM
C=CCn1c(-c2ccc3[nH]c(C)c(C)c3c2)n[nH]c1=S 50.1 µM
CN(CCCN(Cc1ccc(Cl)cc1)c1ccc(Br)cn1)C(=S)NCCCc1cnc[nH]1 56.2 µM
O=C(CSc1ncn[nH]1)c1ccc2c(c1)OCO2 31.6 µM

Potency, inconclusive:
COC(=O)C1=C(N)Oc2c(oc(CO)cc2=O)C1c1c(F)cccc1Cl (stereo not drawn) 50.1 µM [inhibitor, partial curve]
Nc1cc([N+](=O)[O-])ccc1O 14.1 µM [inhibitor, full curve]
CC(C)CNc1ncnc2oc(-c3ccco3)c(-c3ccco3)c12 25.1 µM [inhibitor, partial curve]
Cc1ccc(-n2c(C)cc(C(=O)Cn3nc(C(=O)O)c4ccccc4c3=O)c2C)cc1 14.1 µM [inhibitor, full curve, poor fit]
CCOC(=O)N1CCC(N2CCN(Cc3ccc(C)o3)C(CCO)C2)CC1 (stereo not drawn) 11.2 µM [inhibitor, full curve, poor fit]
Nc1ncc(-c2ccccc2)c(-c2ccc(OCc3ccccc3)cc2O)n1 39.8 µM [inhibitor, partial curve]
COC(=O)c1ccc(Cn2cc(/C=C\[N+](=O)[O-])c3ccccc32)o1 44.7 µM [inhibitor, partial curve]
COc1cc(/C=N/NC(=O)c2ccc(COc3ccccc3Cl)o2)cc(Br)c1O 25.1 µM [inhibitor, single point]
Cc1ccc(OCC(=O)N/N=C/C=C/c2ccco2)cc1 56.2 µM [inhibitor, partial curve, poor fit]
O=C(O)c1ccc(N=c2oc3cc(O)ccc3cc2C(=O)NCc2ccccc2)cc1 50.1 µM [inhibitor, partial curve]
O=C(N/N=C/c1ccccc1O)C1SCCCS1 79.4 µM [inhibitor, partial curve]
O=[N+]([O-])c1cc([N+](=O)[O-])c(Oc2cncc(Cl)c2)cc1NC1CCCCCCC1 31.6 µM [inhibitor, partial curve]
Nc1ccc2cc3ccccc3cc2c1 63.1 µM [inhibitor, partial curve, poor fit]
COc1ccc(C2NC(=O)NC(c3ccccc3)=C2c2nc3ccccc3s2)cc1 (stereo not drawn) 31.6 µM [inhibitor, full curve, poor fit]
Cc1cc(SCC(=O)c2cccc([N+](=O)[O-])c2)nc(=O)[nH]1 50.1 µM [inhibitor, partial curve]
COc1ccc(-c2[nH]c3ccccc3c2SCCNC(=O)c2ccccc2)cc1 50.1 µM [inhibitor, full curve, poor fit]
O=[N+]([O-])c1cc(C(F)(F)F)ccc1N1CCN(S(=O)(=O)c2ccc3c(c2)CCCC3)CC1 31.6 µM [inhibitor, partial curve]
COc1cc(CNc2ccc3[nH]c(=O)[nH]c3c2)ccc1OCc1ccccc1F 8.91 µM [inhibitor, partial curve] and 7.94 µM [inhibitor, full curve, poor fit]
N#CC1=C(N)OC(c2ccccc2)=C(C#N)C1c1ccc2c(c1)OCO2 (stereo not drawn) 50.1 µM [inhibitor, partial curve, poor fit]
O=C(CSc1nc2ccccc2s1)N/N=C/c1cc([N+](=O)[O-])ccc1O 39.8 µM [inhibitor, single point]
COc1ccccc1NC(=O)NCCCN1CCN(c2cccc(Cl)c2)CC1 56.2 µM [inhibitor, partial curve]
CCOC(=O)c1c(C)[nH]c(CCC(=O)NCCCN2CCN(c3cc(C)ccc3C)CC2)c1C 56.2 µM [inhibitor, partial curve]
COc1ccc(C=C(c2nc3ccccc3s2)c2nc3ccccc3s2)cc1O 10 µM [inhibitor, full curve]
Cc1cccc(C)c1-c1ccc(CN2C(CC(C)C)C(=O)N(Cc3cn(CCO)nn3)CCS2(=O)=O)cc1 (stereo not drawn) 63.1 µM [inhibitor, partial curve, poor fit]
COc1ccc(C2c3[nH]c4ccccc4c3CCN2Cc2cccn2-c2ncccn2)cc1C (stereo not drawn) 35.5 µM [inhibitor, partial curve]

Potency, inactive:
CC(=O)Nc1ccc(O)cc1
CCC(C)NC(=O)c1ccc2c(c1)S(=O)(=O)c1ccccc1C2=O (stereo not drawn)
CCN(CC)S(=O)(=O)c1ccc(NC(=O)CCc2c(C)nc3cc(-c4ccc(Cl)cc4)nn3c2C)cc1
O=C(Nc1c2ccccc2nc2ccccc12)C(Cl)(Cl)Cl
O=C(NCc1ccco1)C1CCN(C(=O)c2ccc([N+](=O)[O-])cc2)CC1
CC(=O)Oc1ccc(N2C(=O)[C@@H]3[C@H](C2=O)[C@H]2c4ccccc4C=NN2[C@@H]3C(C)=O)cc1
Cc1ccccc1Nc1nnc(SCC(=O)c2c(N)n(C3CC3)c(=O)[nH]c2=O)s1
O=C(Nc1ccc2oc(-c3cccnc3)nc2c1)c1ccc(Br)o1
CCOC(=O)c1c(S(=O)(=O)NCC(=O)Nc2cccc(CC)c2)c(C)n(C)c1C
CCc1ccc(NC(=O)CSc2nc(-c3ccccc3)c(C#N)c(=O)[nH]2)cc1
Clc1cccc(-c2csc(-c3nc(-c4ccc(Br)s4)cs3)n2)c1
